# Values joined by “and” are separate entries in the source; they are usually repeats but may differ in a detail not shown here. Equal entries are not always repeated. About 1,200 (2.5%) of roughly 48,000 compounds were called active. Inconclusive results (about 2%) are left out.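 Rule for the calls: active = activation of at least 60% and not above a set upper limit (about 1 call in 100 departs from these limits); inconclusive = activation of 40% to 60%, or above that upper limit; inactive = activation under 40%.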 This is one part of the list.
# Molecular target: Probable G-protein coupled receptor 32 (Homo sapiens) (UniProt O75388)
# Experiment: qHTS for Agonists of Human Resolvin D1 Receptor DRV1; note: 0% is about no effect
# Settings: CHO-K1 GPR32 beta-arrestin PathHunter luminescence, 90 min; at 76.9 µM; stronger effect = higher value; zero percent set by DMSO-only wells
# Outline: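 Luminescent readout of beta-Gal complementation quantifies ligand-induced beta-arrestin association with GPR32 in CHO-K1 cells; 90 min compound incubation at 37 °C, detection 1 h at room temperature.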
# Sequence of UniProt O75388 (O75388 whole entry, looked up): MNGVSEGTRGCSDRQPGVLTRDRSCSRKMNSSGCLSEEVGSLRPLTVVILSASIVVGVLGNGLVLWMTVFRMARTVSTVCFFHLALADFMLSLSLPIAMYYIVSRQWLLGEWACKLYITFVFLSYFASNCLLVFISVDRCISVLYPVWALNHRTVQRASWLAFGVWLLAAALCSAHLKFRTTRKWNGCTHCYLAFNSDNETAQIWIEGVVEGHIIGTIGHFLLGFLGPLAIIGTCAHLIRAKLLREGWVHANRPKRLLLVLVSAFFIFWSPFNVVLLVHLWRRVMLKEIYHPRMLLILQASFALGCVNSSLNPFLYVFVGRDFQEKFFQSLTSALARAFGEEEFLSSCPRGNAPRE
row,SMILES,activation
1,CC1CCCCN1S(=O)(=O)c1ccc2c(c1)oc(=O)n2CC(=O)Nc1ccc(Cl)cc1 (stereo not given),inactive: 8%
2,CCCCNc1cc(C(=O)O)cc(S(N)(=O)=O)c1Oc1ccccc1,inactive: 2.02% and inactive: 5.01%
3,Cc1ccc(NC(=O)C(Cc2ccccc2)NS(=O)(=O)c2cccc3nsnc23)c(C)c1 (stereo not given),inactive: -17.8%
4,CCN(CCCNC(=O)c1cc2cc3ccc(OC)cc3nc2s1)c1ccccc1,active: 95.8%
5,CCOc1cc(C2c3c(-c4ccccc4O)n[nH]c3C(=O)N2CCc2ccccc2)ccc1O (stereo not given),inactive: -2.86%
6,CNC(=O)COc1ccc(Nc2nnc(-c3ccc(C)c(S(=O)(=O)NC(C)(C)C)c3)c3ccccc23)cc1,inactive: -23.7%
7,COc1cc(NC(=O)Cn2cc(S(=O)(=O)c3ccccc3)c(=O)c3ccccc32)cc(OC)c1,inactive: -6.84%
8,COc1ccc(-c2cc(C(F)(F)F)nc(SCCC(=O)Nc3c(C)cccc3C)n2)cc1,inactive: -12.9%
9,COc1cccc(-c2ccc3c(N)c(C(=O)Nc4ccc(C)c(F)c4)sc3n2)c1,inactive: 0.822%
10,CCc1ccc(C2c3c(oc4ccc(C)cc4c3=O)C(=O)N2c2nc(C)c(C)s2)cc1 (stereo not given),inactive: 5.96%
11,O=C(NCC12CC3CC(CC(C3)C1)C2)c1cc2nc(-c3ccc(F)cc3)cc(C(F)(F)F)n2n1,inactive: 0.192%
12,O=C(Nc1ccc(F)cc1F)c1ccc(-n2cnnc2)cc1,inactive: -11.4%
13,Cc1ccc(OCC(=O)Nc2ccc(C(=O)OCc3cc(=O)n4c(C)csc4n3)cc2)cc1,inactive: -5.32%
14,COc1ccc(-c2onc(C)c2C)cc1S(=O)(=O)NC1CCC(C)CC1 (stereo not given),inactive: 11.9%
15,Cc1cccc(NC(=O)CSc2cc(C)c3ccccc3n2)c1,inactive: 6.36%
16,Cc1cc(-n2c(C)nc3ccccc3c2=O)ccc1NC(=O)c1cccc([N+](=O)[O-])c1,inactive: 45.2%
17,Cc1ccc(-n2c(=O)c3oc4ccccc4c3n(CC(=O)Nc3ccccc3)c2=O)cc1C,inactive: -22%
18,CC(C)CNC(=O)C1=CC(c2ccc3c(c2)OCO3)=NS(=O)(=O)N1C,inactive: -0.0228%
19,Cc1ccc(Cn2c(CNC(=O)c3ccccc3Br)nc3cccnc32)cc1,inactive: -19.8%
20,CCc1ccccc1NC(=O)Cc1c(C(=O)O)[nH]c2ccc(Cl)cc12,inactive: 8.67%
21,COc1ccc(N2CCN(C(=O)Nc3cccc(C(F)(F)F)c3)CC2)cc1,inactive: 27.8%
22,Oc1c(C(c2ccccc2)N2CCN(c3ccccc3)CC2)sc2nc(-c3ccco3)nn12 (stereo not given),inactive: -1.51%
23,O=C(NCCc1ccccc1)C(=O)Nc1cccc(Br)c1,inactive: 1.32%
24,CCOC(=O)c1c(NC(=O)c2cc(-c3ccc(OC)cc3)on2)sc(C)c1C,inactive: -9.06%
25,O=C(CSc1nc(=O)[nH]c2c1CCC2)NCc1ccccc1,inactive: -4.63%
26,CO/N=C(\C(=O)O)c1csc(NC(=O)CCl)n1,inactive: -45.9%
27,Cn1c(CCNC(=O)c2ccco2)nc2cc(NC(=O)COc3ccc(Cl)cc3)ccc21,inactive: -8.74%
28,Cc1ccc(C(=O)COC(=O)CCC(=O)Nc2ccc(Oc3ccccc3)cc2)cc1C,inactive: -11.7%

row,SMILES,activation
1,O=C1CC(c2ccc(Cl)cc2)N=C(NC(=O)c2ccccc2)N1 (stereo not given),inactive: -8.83%
2,COc1cccc(NC(=O)CCNC(=O)Cn2ccc3ccccc3c2=O)c1,inactive: 10.5%
3,Cc1ccc(C)c(NC(=O)c2cc(=O)c3cc(C)cc(C)c3o2)c1,inactive: -30.5%
4,Cc1ccc(NC(=O)Cn2c(=O)ccc3cc(S(=O)(=O)N4CCC(C)CC4)ccc32)cc1Cl,inactive: -7.17%
5,CC(C)C(=O)OCc1cc(=O)n2nc(C3CCCCC3)sc2n1,inactive: -8.93%
6,Cc1ccc(NC(=O)CSc2nnc(N)s2)c(C)c1,inactive: -0.0851%
7,COc1ccc(CNC(=O)C2CCN(S(=O)(=O)c3cccc4nonc34)CC2)cc1OC,inactive: -21%
8,CCc1ccc(NCc2cc3cc4c(cc3n(CC(=O)Nc3ccc(F)cc3)c2=O)OCCO4)cc1,inactive: -55%
9,COCCNc1ncnc2c1c(-c1ccccc1)cn2-c1cccc(Cl)c1,inactive: -32.5%
10,CCCCNC(=O)CCc1c(C)nc2c(c(C)nn2-c2ccccc2)c1C,inactive: 21.7%
11,CCN(CC)c1ccc(C2C(C(N)=O)=C(C)Nc3ncnn32)cc1 (stereo not given),inactive: 22.7%
12,Cn1ccnc1SCC(=O)Nc1cc(Cl)ccc1Cl,inactive: -4.3%
13,Cc1ccc(NC(=O)C2CCCN2S(=O)(=O)c2cccc3cccnc23)cc1C (stereo not given),inactive: -7.03%
14,Cc1cccc(CS(=O)(=O)c2ncc(Cl)c(C(=O)NCc3ccccc3)n2)c1,inactive: -29.1%
15,COc1cccc(OCc2nc3ccccc3n2CCOc2cccc(C)c2)c1,inactive: -28.4%
16,O=C(NCCc1ccccc1)c1cc(Sc2ccc(F)cc2F)nc2ccccc12,inactive: -17.2%
17,COc1ccccc1N1CCN(C(CNC(=O)C(=O)NCCc2ccccc2)c2cccnc2)CC1 (stereo not given),inactive: 35.8%
18,Cc1ccccc1CN1CCCN(CC(=O)Nc2c(C)cccc2C)S1(=O)=O,inactive: -9.71%
19,Cc1cc(O)c(C(C)C)cc1Cl,active: 85.6%
20,Fc1ccc(CNc2nc(-c3ccccc3)cc(C(F)(F)F)n2)cc1,inactive: 9.87%
21,Cn1c(=O)c2c(nc(SCC(=O)Nc3ccc(F)cc3)n2Cc2ccccc2)n(C)c1=O,inactive: 2.09%
22,CCC(C(=O)Nc1ccc(C(C)=O)cc1)n1c(C)c2cnn(-c3ccccc3)c(=O)c2c1C (stereo not given),inactive: 0%
23,CCOc1ccc(CCNC(=O)c2ccc3nc(CC)c(CC)nc3c2)cc1,inactive: -35.6%
24,O=C(Nc1ccc(F)cc1F)c1ccc2c(=O)n3c(nc2c1)CCCCC3,inactive: 28.6%
25,COc1ccccc1-c1cc(C(=O)Nc2cc(Cl)ccc2O)no1,inactive: 18.2%
26,CCOc1ccc(CNC(=O)c2cnc3sc(N4CCC(C)CC4)nn3c2=O)cc1OC,inactive: 22.6%
27,Cc1c(C(=O)N(C)c2cccc(C(F)(F)F)c2)sc2nc3n(c(=O)c12)CCCCC3,inactive: -25.8%

# Source: PubChem BioAssay AID1346428 (National Center for Advancing Translational Sciences (NCATS), 2018)
